Reference: the supplement of paper PMC3334620
Whole data set: some 33,000 sequences, median “E-score (-0.5 to 0.5)” near -0.053, cut for the highest 2% near 0.37. The list shows a part of the results.

Each sequence was assayed against Hap1 (UniProt P0CE41) (assay: PBM E-score (8-mer binding enrichment) (E-score (-0.5 to 0.5)); higher = stronger / more preferred TF binding; most listed sequences are background and not binding sites). Settings: protein concentration: 200 nM; construct: GST-DNA-binding domain.
Procedure, shortened: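 Yeast transcription factors, full-length or as DNA-binding domains, were expressed with a GST tag using PURExpress in vitro transcription/translation. At about 100-200 nM they were applied to universal all-10-mer Agilent arrays, double-stranded by primer extension on fresh or once-stripped slides. Fluorescent anti-GST detected bound protein, and masliner normalised the scans. E-scores for ungapped eight-base words, pooled with reverse complements, came from the Universal PBM Analysis Suite.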

UniProt P0CE41, sequence (P0CE41 whole entry, the tested form may be a part): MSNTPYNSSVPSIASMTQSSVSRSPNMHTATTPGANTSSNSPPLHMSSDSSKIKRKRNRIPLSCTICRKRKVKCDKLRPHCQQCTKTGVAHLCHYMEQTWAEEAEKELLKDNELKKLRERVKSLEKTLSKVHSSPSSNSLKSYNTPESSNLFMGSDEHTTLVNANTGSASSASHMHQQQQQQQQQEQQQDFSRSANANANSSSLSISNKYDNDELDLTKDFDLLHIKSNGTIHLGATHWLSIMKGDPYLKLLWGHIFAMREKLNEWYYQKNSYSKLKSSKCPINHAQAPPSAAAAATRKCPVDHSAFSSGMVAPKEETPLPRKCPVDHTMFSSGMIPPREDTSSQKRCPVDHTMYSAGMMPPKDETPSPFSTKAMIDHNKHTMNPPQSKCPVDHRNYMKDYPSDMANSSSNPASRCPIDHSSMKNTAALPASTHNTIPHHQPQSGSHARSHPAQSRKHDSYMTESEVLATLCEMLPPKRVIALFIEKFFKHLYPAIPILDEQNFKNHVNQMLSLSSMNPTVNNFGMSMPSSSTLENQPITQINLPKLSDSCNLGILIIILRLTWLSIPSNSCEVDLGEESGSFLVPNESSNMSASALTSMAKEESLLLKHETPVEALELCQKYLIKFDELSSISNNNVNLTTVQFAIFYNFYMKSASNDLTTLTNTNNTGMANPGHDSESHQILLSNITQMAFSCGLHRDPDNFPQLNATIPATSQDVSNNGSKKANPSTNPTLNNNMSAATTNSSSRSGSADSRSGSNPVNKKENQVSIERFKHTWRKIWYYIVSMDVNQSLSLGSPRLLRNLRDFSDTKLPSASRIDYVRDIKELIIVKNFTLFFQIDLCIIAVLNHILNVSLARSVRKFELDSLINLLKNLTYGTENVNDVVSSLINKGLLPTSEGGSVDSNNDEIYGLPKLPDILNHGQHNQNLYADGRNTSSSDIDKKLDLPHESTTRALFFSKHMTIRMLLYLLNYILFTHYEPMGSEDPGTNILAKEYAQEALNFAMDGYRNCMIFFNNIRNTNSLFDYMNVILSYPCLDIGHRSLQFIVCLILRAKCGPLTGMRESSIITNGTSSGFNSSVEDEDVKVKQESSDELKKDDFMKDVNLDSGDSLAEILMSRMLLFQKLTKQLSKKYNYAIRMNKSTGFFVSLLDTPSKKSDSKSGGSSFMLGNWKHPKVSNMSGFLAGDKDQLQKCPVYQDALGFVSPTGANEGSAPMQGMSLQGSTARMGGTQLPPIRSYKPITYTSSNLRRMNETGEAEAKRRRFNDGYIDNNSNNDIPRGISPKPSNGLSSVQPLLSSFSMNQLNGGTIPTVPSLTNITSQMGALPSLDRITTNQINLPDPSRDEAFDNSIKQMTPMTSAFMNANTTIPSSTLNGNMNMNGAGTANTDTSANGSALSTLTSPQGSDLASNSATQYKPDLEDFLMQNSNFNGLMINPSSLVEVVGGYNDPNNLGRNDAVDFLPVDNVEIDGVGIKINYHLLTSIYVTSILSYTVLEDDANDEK

Sequence	PBM E-score
GAGACGCA	0.0319
CAGTGAAC	-0.195
CTATAAGC	0.0118
AAGAAAAT	-0.0323
CAGGTACG	-0.0992
CGCAATCA	0.117
CATGCGGG	0.0552
AGGCGGGA	-0.0314
CAAGCGTC	-0.181
ATGGCTAC	-0.296
GAGACATC	0.137
GACTACTA	-0.171
ACTTAAAT	-0.178
ACTGTAAG	-0.0778
TATAGTGA	-0.235
GTGTTAAC	-0.0743
TCGTAGCA	-0.149
CGCCCACC	-0.146
GGAGAGAC	0.101
AGCTTGTA	-0.272
GCCCTACA	-0.0469
ACTTAGAC	-0.115
ATAAAGAT	-0.0806
CCCTATCG	0.155
ATTCCGAA	0.375

Sequence	PBM E-score
ATGGGAAC	-0.142
ACTTAGTC	-0.00216
CGTCCTTC	-0.0208
TCTAGCAA	-0.0384
CGTATAGA	-0.188
AGAAAGGC	-0.116
GCATCTAA	0.171
CACGGAAC	0.28
GGACACAA	0.138
CAGTCGCG	-0.0131
CATCATAG	-0.109
CCTACCAC	-0.0291
ATAGCGGG	0.168
ACGCAGTA	-0.0558
GGATGTCA	0.0609
CCGTGAGA	0.0735
CTCTGCTA	-0.177
CACGTTTC	-0.0464
ATCACTGG	-0.17
ATGCTCAA	-0.119
ATCTTGCG	0.071
CATCCAGA	-0.186
CCACACAA	-0.294
CGTGGTGA	-0.104
ACTAGCAA	-0.0991

Sequence	PBM E-score
CGGCGCGA	0.278
AGCCCACT	-0.19
ACCCGATA	0.439
CTTGTAGC	-0.145
ACGCGGAC	0.331
GCTGGTAC	0.0706
CCACGCCA	-0.308
GTCGTAGA	-0.175
AGCCCCCT	-0.251
CCGGGTCG	0.291
CGGCAAGA	0.0997
ACGGTGCT	0.00635
GGCACTAA	0.163
ACCGGATG	0.329
AGGATGAT	-0.204
CGACGCGA	0.0265
GGCTCAGA	-0.0798
GGCATCCC	-0.0619
GAGTGTTA	-0.078
ACTTTGAT	-0.205
AAAGTACA	-0.223
AGCCGTCC	0.105
ACATCCAC	-0.0519
AAAAATAG	-0.0154
AATGGTAC	-0.122

Sequence	PBM E-score
GGTGCTGA	0.111
AGCTCCTA	0.0713
CTATGCGC	0.0954
AGTAAGCA	-0.286
CAACCTTC	-0.0289
GCTTTTCC	0.175
TCTCGCAA	-0.0649
GAGCATCA	-0.133
GAGGGCTA	-0.259
TCTGATCA	-0.0745
GGGATGCA	0.0127
ACAATCTA	-0.186
CATCTGGG	-0.325
GCTTAGCC	0.0506
CGCACACC	0.0349
ACGGCTTA	0.169
AGACACGA	-0.00421
ATCTACCG	0.178
TGACTGAA	-0.245
AACTAGAG	-0.292
ACTAGAGG	-0.1
GGGAGCGA	-0.125
GATCTAAA	0.0348
ATCACTCA	-0.111
CCGAGTGA	0.261

Sequence	PBM E-score
GATACTCA	0.143
GACTCGCC	0.0129
ACAACACG	0.0134
TTAGGCAA	-0.167
CCATACGG	0.186
AATTACAA	-0.269
AGATTTAT	0.192
AACATAAA	-0.115
GGGGACGA	-0.0152
AAACTTCT	0.146
GGCAAGCC	-0.0221
AAGGACAA	-0.0277
AATTTGTG	0.0108
CCGGCTAA	0.331
CTGGGACA	-0.243
AACGCACT	-0.0698
TAGCGCAA	-0.0472
GCGTATTA	0.031
GTAGCGCA	0.0264
AGTACGCC	0.0273
ACGGTCTC	0.141
ATTAGTCG	0.0282
CACATCAG	-0.0587
GGGTAGTA	0.0782
CGGCTTAG	0.229

Sequence	PBM E-score
ACTCCCTA	-0.252
CCTAACAC	0.139
AGCGCCGC	0.177
AATGCCGA	0.405
CACCCGAA	0.267
GTCGTCGA	-0.121
GGCGAAAA	0.145
AGCAGAGA	-0.248
ACGAAATG	-0.0873
GCATTTAA	0.223
CCATCGCG	0.224
GAAGTCCA	-0.0583
AGAAGGCA	-0.201
CCGAGCAC	0.287
GCCCAGGA	0.0232
GCGGCAGC	-0.115
TAACTATA	-0.14
GACTAGCA	-0.0979
AATCGAAT	-0.035
ACGCTGTA	-0.134
CTTTAGAA	0.0707
ACGTAGGA	-0.134
CTGCCGCA	-0.137
CTATAATC	-0.101
CACCACAC	-0.0184

Sequence	PBM E-score
CGTGACAG	-0.0536
ATCCGACA	0.305
AGCGCGGG	0.0832
CCGAAGCA	0.21
CAACATTG	0.0423
CATGTAGA	-0.188
GCTGGATA	-0.098
ATCTGCAC	-0.0358
AGACGATG	-0.0493
GACTTTCC	0.165
GATGCCAC	-0.127
AGTTTCGC	-0.0105
ACCTTAAC	0.0996
GGTGTATA	-0.0843
AACCGTCC	0.13
ACCAGCCC	0.14
ATTAAGAG	-0.0483
GACTTACA	-0.23
CACTAGTA	-0.164
GATGCCTA	-0.185
GCGGTGCC	0.0757
ACCAGGCC	-0.0592
